Some of the results follow.
These molecules were tested on T1, C. trachomatis L2/434/Bu expressing GFP (CTL2-GFP). Details: total inclusion area; 28.5 h, 10 µM; inhibitor.
T1 construct: L2/434/Bu GFP intracellular growth in HeLa cells
Design: species or system HeLa; C. trachomatis total inclusion area by high-content imaging, normalised to DMSO
How it was run: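 Following bulk GFP and resorufin fluorescence reads, infected cells were fixed, Hoechst-stained and imaged on a high-content platform. Inclusion total area and number per well served as growth proxies; nuclei counts indicated host viability. MICs were derived as for the fluorescence assay.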

SMILES	% of control remaining
COC(=O)C(=O)N1CC[C@H]2NC(=O)N(Cc3ccccc3)C(=O)[C@H]21 [CBK289292]	109.876
Cn1c(=O)n(CC(=O)NCCc2ccccc2)c2cccnc21 [CBK283910]	111.734
C#CC1(OC(=O)CC)CCN(CCCC(=O)c2ccc(F)cc2)CC1 [CBK025277C]	87.4338
O=C(Cc1cccc2ccccc12)Nc1nnc(C2=COCCO2)o1 [CBK287414]	107.434
Cc1cccc2[nH]c(-c3ccccc3)nc12 [CBK000110]	95.4168
Cc1ccc(C(=O)O)cc1S(=O)(=O)Nc1ccc(-c2cn3ccsc3n2)cc1 [CBK296688]	97.1479
COc1ccc(F)c(CNCC2CCN(C(=O)OC(C)(C)C)CC2)c1 [CBK056716]	101.126
Fc1ccccc1-c1nccnc1NCc1ccncc1 [CBK037540]	106.95
O=C(/C=C\c1cn(-c2ccccc2)nc1-c1cccc([N+](=O)[O-])c1)n1nnc2ccccc21 [CBK265273]	110.804
Cc1noc(NS(=O)(=O)c2ccc(NC(=O)/C=C/c3ccc(Cl)cc3Cl)cc2)c1C [CBK263115]	85.4115
Cc1nc(N2CCN(C)CC2)ncc1C(=O)NCCSc1cnn[nH]1 [CBK306623]	53.8951
Cc1ccc(S(=O)(=O)N(CC(=O)NC2CCCC2)Cc2ccccc2)cc1 [CBK263166]	91.8523
CN(Cc1ccccc1)C1(O)C(=O)Nc2ccc(Cl)cc21 (centres unmarked) [CBK269703]	43.6002
O=c1[nH]c2ccccc2n1CCCN1CCC2(CC1)CN(CCO)c1ccccc12 [CBK137133]	68.3391
O=C(O)c1cc(NC(=O)C(c2ccccc2)c2ccccc2)cc(C(=O)O)c1 [CBK261191]	82.1466
O=[N+]([O-])c1ccc(NC(c2ccccc2)C2CC2)nc1 (centres unmarked) [CBK295317]	96.7814
Cc1cc(-c2nccnc2NCCCN2CCOCC2)cc(C)c1O [CBK036598]	107.859
Cc1cccc(=O)n1CCCn1cnc2nccnc2c1=O [CBK307186]	67.1898
Cc1ccc(Cn2ncc3c(N4CCCC4)ncnc32)cc1 [CBK287601]	88.7391
O=C(CSc1ccc2ccccc2c1)NCc1ccco1 [CBK269699]	83.1071
CCC(=O)N1CCC2(CC1)CNC(=O)c1cc(C)ccc1O2 [CBK282468]	112.482
CCN1CCN(S(=O)(=O)c2cccc3c(S(=O)(=O)N4CCN(CC)CC4)cccc23)CC1 [CBK269611]	104.693
Cc1nc(C)n(CC2CCCCN2Cc2cn3ccccc3n2)n1 (centres unmarked) [CBK304008]	81.7049
O=S(=O)(NCc1ccccc1)c1ccc(Cl)c(S(=O)(=O)NCc2ccccc2)c1 [CBK263251]	65.6379
O=C(Cn1cccc(C(=O)NCc2ccccc2)c1=O)NC1(c2ccccc2)CCCC1 [CBK286058]	101.891

SMILES	% of control remaining
COc1cc(Cc2c(OCCN(C)C)nc3ccccn3c2=O)cc(OC)c1OC [CBK005004C]	107.407
NC(=O)c1ccc(NC(=O)N2CCc3ccccc3C2)cc1 [CBK155299]	87.1337
Cn1c(=O)c2c(ncn2Cc2noc(-c3ccoc3)n2)n(C)c1=O [CBK304945]	82.8086
NS(=O)(=O)c1ccc(NC(=O)/C(=C/c2ccc(Br)cc2)NC(=O)c2ccccc2)cc1 [CBK262109]	62.3693
CN(C(=O)C1CCN(C(=O)c2ccoc2)CC1)C(c1ccc(F)cc1)c1ccccn1 (centres unmarked) [CBK060206]	104.321
CC(C)c1cc(C(C)C)c(S(=O)(=O)n2cnc3c2c(=O)[nH]c(=O)n3C)c(C(C)C)c1 [CBK018772]	28.7779
CC(Oc1cccc(F)c1)C(=O)N(Cc1cccnc1)CC1CCCO1 (centres unmarked) [CBK305313]	92.0779
COc1ccc(S(=O)(=O)NCCNC(=O)c2cc(-c3cccc(S(C)(=O)=O)c3)cnc2NCC2CC2)cc1 [CBK076425]	106.245
CN1CCC[C@H]1C(=O)Nc1cccc2cc[nH]c12 [CBK160098]	94.2898
O=C(NCCCc1ccccn1)C1(c2ccccc2F)CC1 [CBK283155]	101.294
c1cncc(COc2cncc(OC3CCN(Cc4ccc5c(c4)OCO5)C3)n2)c1 (centres unmarked) [CBK084458]	80.4387
O=C(N/N=C/c1ccc(Cl)cc1Cl)c1nc(-c2ccccc2)cc(-c2ccccc2)n1 [CBK262814]	93.7715
CC(=O)Nc1nn(Cc2cc3c(cc2Cl)OCO3)c2ccccc12 [CBK048251]	94.0628
CCc1cccc(C)c1NC(=O)C1C2CCC(O2)C1C(=O)O (centres unmarked) [CBK263676]	95.7958
CC(C)(C)NC(=O)c1cccc(N2C(=O)c3ccc(C(=O)O)cc3C2=O)c1 [CBK287123]	76.6822
CN(C)CCOC1OC(CO)C(O)C(O)C1O (centres unmarked) [CBK012476C]	34.5983
COC(=O)c1ccc(N2CCN(Cc3nc(C)no3)C(C)C2)cc1 (centres unmarked) [CBK305998]	66.5702
O=C(CN1C(=O)C2CCC(c3ccccc3)CC2C1=O)Nc1cccc2ccccc12 (centres unmarked) [CBK268061]	98.8383
Nc1ccc(-c2cccc(C(F)(F)F)c2)c2ccccc12 [CBK084324]	52.0981
c1ccc(CC2CCN(CCOc3ccccc3)CC2)cc1 [CBK126433]	109.938
CCOC(=O)C1CCCN(Cc2nc(-c3ccc(F)cc3F)oc2C)C1 (centres unmarked) [CBK306749]	62.3521
Cc1cccc(C)c1NC(=O)CN1CCN(c2nccnc2OC2CCCCC2)CC1 [CBK082835T]	85.9036
S=C(Nc1cccc(Cl)c1Cl)Nc1nn(Cc2ccc(Cl)c(Cl)c2)cc1Cl [CBK267109]	107.208
CN1CCC(N(C)C(=O)NCc2ccc(C#N)cc2)C1 (centres unmarked) [CBK156005]	95.8402
O=C(O)[C@@H]1CC(O)CN1C(=O)c1ccc2noc(-c3ccccc3)c2c1 (some centres unmarked) [CBK286736]	93.9197
